Among all 48,000 compounds or so, about 1,200 (2.5%) were called active. About 2% were inconclusive and are not listed.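 Rule for the calls: active = activation of at least 60% and not above a set upper limit (about 1 call in 100 departs from these limits); inconclusive = activation of 40% to 60%, or above that upper limit; inactive = activation under 40%.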 The list shows a part of the results.
Molecular target: Probable G-protein coupled receptor 32 (Homo sapiens) (UniProt O75388)
Experiment: qHTS for Agonists of Human Resolvin D1 Receptor DRV1
Conditions: CHO-K1 GPR32 beta-arrestin PathHunter luminescence, 90 min; at 76.9 µM; stronger effect = higher value; zero percent set by DMSO-only wells
Outline: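 Using DMSO wells as EC0, agonist-induced signal was taken as chemiluminescence from beta-Gal reconstituted upon beta-arrestin recruitment to GPR32 in CHO-K1 cells after 90 min compound treatment.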

UniProt O75388, sequence (O75388 whole entry, looked up): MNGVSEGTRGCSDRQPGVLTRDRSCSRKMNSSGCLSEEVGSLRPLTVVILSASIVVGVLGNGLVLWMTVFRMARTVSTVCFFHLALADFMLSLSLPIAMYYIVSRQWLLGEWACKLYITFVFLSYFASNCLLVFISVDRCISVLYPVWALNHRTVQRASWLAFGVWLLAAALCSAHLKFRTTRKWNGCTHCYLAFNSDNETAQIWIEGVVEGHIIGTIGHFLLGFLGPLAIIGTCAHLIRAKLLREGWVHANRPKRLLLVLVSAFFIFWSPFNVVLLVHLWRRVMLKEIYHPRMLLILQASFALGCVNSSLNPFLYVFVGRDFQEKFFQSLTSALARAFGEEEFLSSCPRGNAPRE

activation, inactive:
O=C(C1CC1)N1CCc2cc(Br)cc(S(=O)(=O)N3CCN(c4cccc(C(F)(F)F)c4)CC3)c21 -0.137%
CCCCOc1ccc(-c2nn(-c3ccccc3)cc2C2NC(=O)NC(C)=C2C(=O)OC)cc1 (configuration not stated) -16.7%
COc1ccccc1CNC(=O)C1CCCN(c2nc3ccccc3n3cccc23)C1 (configuration not stated) -22.9%
CCCCN(C)c1nc2c(S(=O)(=O)c3ccc(CC)cc3)nnn2c2ccc(Cl)cc12 -10.3%
COc1ccccc1NC(=O)C1=C(C)Nc2c(C(=O)Nc3ccc(F)cc3)cnn2C1c1cccc([N+](=O)[O-])c1 (configuration not stated) -18.6%
COc1ccc(NC(=O)Cn2c(=O)n(-c3ccc(OC)c(OC)c3)c(=O)c3ccccc32)cc1 -0.224%
COc1cc(C(CC(=O)NCc2ccc(F)cc2)N2Cc3ccccc3C2=O)cc(OC)c1OC (configuration not stated) 11.9%
CC(=O)N1CCc2cc(Br)cc(S(=O)(=O)N3CCN(c4cccc(C(F)(F)F)c4)CC3)c21 2.87%
COc1ccc(C(F)(F)F)cc1NC(=O)c1sc2nc(-c3cccs3)ccc2c1N -6.33%
CC(=O)c1ccc(N2CCN(c3ncnc4c3c(-c3ccccc3)cn4-c3cccc(C)c3)CC2)cc1 -23.2%
Cc1noc(/C=C/c2cccs2)c1S(=O)(=O)N1CCC(C(=O)Nc2ccc(F)c(Cl)c2)CC1 -24.4%
COC(=O)c1ccccc1NC(=O)c1ccc(COc2ccccc2Cl)o1 4.45%
COc1ccc(C2CC(=O)c3cc(-c4nc(-c5cccc(Cl)c5)cs4)c(=O)[nH]c3C2)cc1OC (configuration not stated) 3.02%
CCOc1ccc(NC(=O)c2ccc(NC(=O)N3CCSc4ncccc43)cc2)cc1 1.35%
Cc1cccc(N2CCN(c3ncnc4c3nc3n4CCCCC3)CC2)c1C 19.1%
CCOC(=O)c1ccc(NC(=O)c2c(-c3c(F)cccc3Cl)noc2C)cc1 -11.7%
CCC(=O)N1CCc2cc(Br)cc(S(=O)(=O)N3CCC(C(=O)NCCCOC(C)C)CC3)c21 -13.5%
Nc1c(-c2nc(-c3cccs3)no2)nnn1-c1ccc(Cl)cc1 1.78%
COc1cccc(C(=O)Nc2cccc(C(=O)OCc3cc(=O)n4nc(C5CC5)sc4n3)c2)c1 -11.8%
O=C(NC1CCCCC1)c1ccc(Cn2c(SCc3ccccc3F)nc3cccnc32)cc1 -20.6%
CSc1ncc2c(n1)-c1ccccc1N(Cc1ccc(Cl)cc1)S2(=O)=O -12.7%
CCOC(=O)c1cnn(-c2ccc(C(=O)Nc3cc(OC)c(OC)c(OC)c3)cc2)c1N -2.62%
CC1CCN(S(=O)(=O)c2cn(CC(=O)Nc3cccc(C(F)(F)F)c3)c(=O)c3ccccc23)CC1 -13.4%
O=C(CSc1ccccc1)N1CCc2c([nH]c3ccccc23)C1c1ccc(F)cc1 (configuration not stated) -35.8%
O=C(Cn1cc(C(=O)c2ccco2)c2ccccc21)Nc1ccc(Br)cc1 2.68%
COC(=O)c1cc2oc3ccccc3c2n1Cc1nc(-c2ccc(OC)cc2)oc1C -2.24%
CCn1c(C(=O)NCCc2ccc(OC)c(OC)c2)cc2sc(Cl)cc21 -11.6%
COc1ccc(Cl)cc1NC(=O)c1c(NCc2ccc(C)o2)sc2c1CCCCC2 -13.2%
CCCCNc1nc(Oc2ccc(OCC)nn2)nc(N2CCOCC2)n1 28.9%
COc1cccc(NC(=O)c2ccc3nc(CCc4ccccc4)oc3c2)c1 -0.354%
CCC1CCCCN1C(=O)Cn1c(=O)n(CCCCCC(=O)NCc2ccccc2)c(=O)c2sccc21 (configuration not stated) 2.01%
CSc1ncc(Cl)c(C(=O)Nc2ccc(NC(C)=O)cc2)n1 -49.3%
COc1cccc(CSc2nc3ccccc3c3nc(CCn4c(C)nc5ccccc54)nn23)c1 -0.999%
CCCn1c2ccccc2c2cnn(CC(=O)N(C)c3ccc(F)cc3)c(=O)c21 12.3%
COc1ccc(-n2c(CC3C(=O)N(C)c4ccc(C)cc43)nc3ccccc3c2=O)cc1 (configuration not stated) -12.8%
CCc1ccc(NC(=O)CN(c2ccc(OC)cc2)S(=O)(=O)c2c(C)[nH]c(=O)[nH]c2=O)cc1 -13.7%
Oc1c(C(c2ccccc2Cl)N2CCCC2)sc2nc(-c3ccco3)nn12 (configuration not stated) -13.5%
CC(=O)Nc1ccc(NC(=O)CSc2nc3ccccc3nc2N2CCOCC2)cc1 -3.84%
CCOc1ccc(N(CC(=O)NCc2ccccc2Cl)S(=O)(=O)c2c(C)[nH]c(=O)[nH]c2=O)cc1 1.73%
COc1ccc(S(=O)(=O)N2CCC(Oc3ccc(-n4cnnn4)cc3)CC2)cc1OC -4.45%
CCOc1ccc(C(=O)c2cn(Cc3ccccc3OC)c3ccc(F)cc3c2=O)cc1 1.09%
Fc1ccc(CN2CCc3nc(Nc4ccccc4)ncc3C2)cc1F -26.9%
O=C(O)[C@H](O)c1ccccc1 0.969%
CN1C(=O)c2ccccc2Sc2ccc(NC(=O)COc3ccc(F)cc3)cc21 15.9%
Cc1nn(-c2ccccc2)c2nc(C3CC3)cc(C(=O)Nc3ccccc3F)c12 -7.44%
COc1ccc(-c2noc(CNC(=O)c3ccco3)n2)cc1 -11.8%
O=C(NCc1ccco1)c1ccc2c(c1)N(Cc1cccc(Cl)c1)C(=O)c1ccccc1S2(=O)=O -29.1%
Cc1ccc(CNC(=O)CSc2cc(C)[nH]c(=O)n2)cc1 20%
Cc1ccccc1C(=O)Nc1nnc(S(=O)(=O)N2c3ccccc3CC2C)s1 (configuration not stated) 11.8%
COc1ccc(C2C(=O)N(C3CCCCCC3)CC(=O)N2Cc2ccc(C)cc2)cc1OC (configuration not stated) -30.5%
COc1cc(C(=O)N2CCC(c3nc4ccccc4o3)CC2)cc(OC)c1OC 8.16%
Cc1c(NS(=O)(=O)c2ccccc2)cc(C(C)C)c(O)c1S(=O)(=O)c1ccc(Cl)cc1 18.7%
